Several values for one entry are separate records, joined by “and”; a condition that tells them apart may be missing. Equal entries are not always repeated. About 31,000 (8.9%) of roughly 350,000 compounds were called active. This list was built around the results that the source calls inconclusive (neither active nor inactive); the mix of calls is not that of the screen. Calls come from the whole dose curve; as a rule, active = well fitted inhibition curve with a large enough effect; inconclusive = small, poorly fitted or top-dose-only effect; inactive = no such curve, though single readings can be large or run the other way. Where the call is inconclusive, the potency comes from a doubtful curve fit.
The compounds below were run against Histone-lysine N-methyltransferase EHMT2 (Homo sapiens) (UniProt Q96KQ7) (assay: qHTS Assay for Inhibitors of Histone Lysine Methyltransferase G9a). Settings: G9a H3K9 monomethylation, AlphaScreen, 2 h; activity, negative = inhibition: at 59 µM (top of the series) unless noted.
Chain of UniProt Q96KQ7 (Q96KQ7 whole entry, looked up): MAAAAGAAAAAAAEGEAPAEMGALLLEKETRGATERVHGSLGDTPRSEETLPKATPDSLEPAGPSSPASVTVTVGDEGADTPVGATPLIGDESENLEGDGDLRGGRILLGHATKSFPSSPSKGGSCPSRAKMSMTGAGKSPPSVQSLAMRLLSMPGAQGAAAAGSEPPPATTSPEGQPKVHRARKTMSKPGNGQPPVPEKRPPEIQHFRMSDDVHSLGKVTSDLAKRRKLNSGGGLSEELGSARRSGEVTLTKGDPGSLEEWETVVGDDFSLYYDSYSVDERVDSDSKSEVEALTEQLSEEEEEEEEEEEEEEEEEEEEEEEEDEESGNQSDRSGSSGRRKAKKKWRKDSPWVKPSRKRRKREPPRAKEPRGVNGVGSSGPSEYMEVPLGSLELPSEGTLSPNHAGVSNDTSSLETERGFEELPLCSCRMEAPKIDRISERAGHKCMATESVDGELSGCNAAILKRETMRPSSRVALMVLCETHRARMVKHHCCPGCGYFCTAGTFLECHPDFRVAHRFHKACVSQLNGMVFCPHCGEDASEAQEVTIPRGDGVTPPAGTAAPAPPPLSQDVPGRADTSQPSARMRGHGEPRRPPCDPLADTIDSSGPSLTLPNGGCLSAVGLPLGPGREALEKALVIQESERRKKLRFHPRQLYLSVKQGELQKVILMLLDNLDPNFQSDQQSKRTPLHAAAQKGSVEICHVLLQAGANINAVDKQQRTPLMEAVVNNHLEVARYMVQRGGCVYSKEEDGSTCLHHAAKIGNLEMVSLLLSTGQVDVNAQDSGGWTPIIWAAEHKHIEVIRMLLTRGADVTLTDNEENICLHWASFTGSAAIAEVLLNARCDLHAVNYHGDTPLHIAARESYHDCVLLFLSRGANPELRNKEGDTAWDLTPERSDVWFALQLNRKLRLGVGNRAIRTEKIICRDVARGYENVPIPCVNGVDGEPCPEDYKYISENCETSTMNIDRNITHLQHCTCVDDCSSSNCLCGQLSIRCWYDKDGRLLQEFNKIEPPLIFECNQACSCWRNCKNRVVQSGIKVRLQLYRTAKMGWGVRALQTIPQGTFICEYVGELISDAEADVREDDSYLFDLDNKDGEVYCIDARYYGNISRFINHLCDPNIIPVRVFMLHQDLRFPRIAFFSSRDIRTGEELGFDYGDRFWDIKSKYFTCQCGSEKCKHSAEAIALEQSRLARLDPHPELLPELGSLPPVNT
How it was run: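 AlphaScreen detection with an anti-monomethyl H3K9 antibody quantified product after a 2 h room-temperature reaction containing 500 nM biotinylated H3K9 peptide, 20 µM SAM and 20 nM enzyme, which had been preincubated 15 min with compound.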
In the case of `Cc1cc(Cl)ccc1NC(=O)c1ccc2c(c1)CCN2S(C)(=O)=O`, the Potency is reported as inconclusive: 1.12 µM [inhibitor, partial curve, poor fit].
`Cn1c(=O)c2c(nc(Br)n2Cc2ccccc2Cl)n(C)c1=O` was tested, and the Potency was inconclusive: 89.1 µM [inhibitor, partial curve, poor fit].
For `Cc1ccc(N(C(C)C(=O)Nc2ccc3c(c2)OCO3)S(C)(=O)=O)cc1` (stereo not drawn), the Potency was “inactive”.
In the case of `O=C(O)C1CSC(c2ccco2)N1` (stereo not drawn), the Potency is reported as active: 3.16 µM.
In the case of `O=C(NC(=S)N1CCCCC1CO)c1cc(Br)ccc1Cl` (stereo not drawn), the Potency is reported as inconclusive: 20 µM [inhibitor, partial curve].
With `CC1(C)CC2(CC(c3ccccc3)Oc3cc(O)ccc32)NC(=S)N1` (stereo not drawn) the Potency was inconclusive: 15.8 µM [inhibitor, single point].
`Cn1nccc1C(=O)Nc1nnc(C2CC2)s1` was tested, and the Potency was inconclusive: 56.2 µM [inhibitor, partial curve, poor fit].
With `COc1ccc(NS(=O)(=O)c2ccc(NC(=O)C(C)(C(F)(F)F)C(F)(F)F)cc2)nn1` the Potency was inconclusive: 79.4 µM [inhibitor, partial curve, poor fit].
For `COc1ccc(N2CCN(S(=O)(=O)CCNC(=O)c3cccs3)CC2)cc1`, the Potency was inconclusive: 3.98 µM [inhibitor, partial curve, poor fit].
With `CCOc1ccc(CCNC(=O)CN2C(=O)COc3ccc(S(=O)(=O)N4CCCC4)cc32)cc1` the Potency was “inactive”.
`CC(C)(C)N1NC2(CCCCC2)NC1=S` was tested, and the Potency was inconclusive: 14.1 µM [inhibitor, partial curve, poor fit].
With `COc1ccc(C(=O)Nc2cc3c(cc2N2CCCCC2)n(C)c(=O)n3C)cc1OC` the Potency was inconclusive: 79.4 µM [inhibitor, single point].
For `COc1ccc(N=C2SC(CC(=O)Nc3ccccc3)C(=O)N2Cc2ccccn2)cc1` (stereo not drawn), the Potency was active: 50.1 µM.
In the case of `CCN1CCCC1CNC(=O)c1cc2c(C)nc3ccccc3c2o1` (stereo not drawn), the Potency is reported as inconclusive: 50.1 µM [inhibitor, partial curve, poor fit].
In the case of `CC1CCN(C(=O)CN2C(=O)NC3(CCCc4ccccc43)C2=O)CC1` (stereo not drawn), the Potency is reported as inconclusive: 79.4 µM [inhibitor, partial curve, poor fit].
`NC(=O)CC(NC(=O)c1ccc(Br)cc1)c1ccc(NCc2ccc(F)cc2)c([N+](=O)[O-])c1` (stereo not drawn) was tested, and the Potency was inconclusive: 0.316 µM [inhibitor, partial curve, poor fit].
For `COC(=O)[C@@H]1CC[C@H](C)[C@@H](c2ccc(C)cc2)N1C(=O)c1ccc(/C=N/O[C@H](C)c2cn([C@@H]3COC[C@H]3O)nn2)cc1`, the Potency was inconclusive: 79.4 µM [inhibitor, single point].
With `COc1ccc(-c2csc(NC(=O)C3=COCCO3)n2)c(OC)c1` the Potency was inconclusive: 3.55 µM [inhibitor, partial curve, poor fit].
In the case of `CCCn1nnc(NC(=S)NC(=O)/C=C/c2ccco2)n1`, the Potency is reported as active: 22.4 µM.
With `CCn1c(C(=O)N2CCC(C(=O)NCCc3ccc(C)cc3)CC2)cc2sccc21` the Potency was “inactive”.
In the case of `Cc1ccc(Cn2ccnc2SCC(=O)NCc2ccccc2Cl)cc1`, the Potency is reported as inconclusive: 8.91 µM [inhibitor, partial curve, poor fit].
With `c1coc(CN2CCN(C(c3cccs3)c3nnnn3C3CCCC3)CC2)c1` (stereo not drawn) the Potency was active: 50.1 µM.
`CCOC(=O)N1CCN(CC(=O)c2ccc(O)cc2O)CC1` was tested, and the Potency was inconclusive: 79.4 µM [inhibitor, single point].
In the case of `CC1CCN(CCOCCOc2ccccc2-c2ccccc2)CC1`, the Potency is reported as active: 28.2 µM.
With `COc1ccc(N2CCN(C(=O)C(=O)c3c[nH]c4ccccc34)CC2)cc1` the Potency was active: 44.7 µM.
`O=C(NC(=S)NC(c1ccccc1)c1ccncc1)c1ccccc1` (stereo not drawn) was tested, and the Potency was inconclusive: 20 µM [inhibitor, single point].
In the case of `CCOC(=O)c1ccc(N2C(=O)c3n[nH]c(-c4ccco4)c3C2c2cccc(OC)c2)cc1` (stereo not drawn), the Potency is reported as inconclusive: 10 µM [inhibitor, partial curve].
In the case of `COC(=O)c1ccc2c(=O)n(CCCCCC(=O)NCCc3ccc(Cl)cc3)c(=O)[nH]c2c1`, the Potency is reported as “inactive”.
`CCNc1ccc(C(=O)O)cc1N` was tested, and the Potency was inconclusive: 17.8 µM [inhibitor, single point].
For `CN(Cc1ccccc1)C(=O)COC(=O)c1cc(NS(=O)(=O)c2cccs2)ccc1O`, the Potency was “inactive”.
With `Cc1ccc(OCc2nnc(SCC(=O)N3CCOCC3)n2C)cc1` the Potency was “inactive”.
For `O=c1cc(-c2cccc3ccccc23)[nH][nH]1`, the Potency was “inactive”.
In the case of `COCCNc1nnnc2c1sc1nc(N3CCOCC3)c3c(c12)CC(C)(C)OC3`, the Potency is reported as inconclusive: 79.4 µM [inhibitor, partial curve, poor fit].
`Cc1ccc(-c2nn3c(C)nnc3s2)cc1NC(=O)c1ccc(OC(C)C)cc1` was tested, and the Potency was inconclusive: 79.4 µM [inhibitor, partial curve, poor fit].
For `S=c1[nH]nc(COc2ccccc2)n1/N=C/c1ccncc1`, the Potency was inconclusive: 3.16 µM [inhibitor, full curve, poor fit].
`CCc1cc(=O)oc2cc(C)cc(O)c12` was tested, and the Potency was inconclusive: 11.2 µM [inhibitor, partial curve, poor fit].
With `O=C1CC(c2nc(-c3ccccc3)no2)CN1c1ccccc1` (stereo not drawn) the Potency was “inactive”.
For `O=C(COc1ncnc2ccc(Br)cc12)NCc1ccc2c(c1)OCO2`, the Potency was inconclusive: 3.16 µM [inhibitor, single point].
`COc1cccc2c1cc1c(=O)n(CC(=O)N3CCN(c4ccccc4)CC3)nc(C)n12` was tested, and the Potency was “inactive”.
For `Cc1ccc(-c2ccc(=O)n(CCC(=O)N3CCN(c4cccc(C)c4)C(C)C3)n2)cc1` (stereo not drawn), the Potency was inconclusive: 44.7 µM [inhibitor, partial curve, poor fit].
In the case of `Cc1cc(NS(=O)(=O)c2ccc(NC(=S)NC(=O)c3ccc(F)cc3Cl)cc2)no1`, the Potency is reported as inconclusive: 31.6 µM [inhibitor, single point].
In the case of `Cc1ccccc1NC(=O)CSc1nnc(-c2ccco2)n1N`, the Potency is reported as active: 7.94 µM.
With `O=C(Nc1nnc(SCc2cccnc2)s1)C1CC(=O)N(c2ccccc2)C1` (stereo not drawn) the Potency was inconclusive: 79.4 µM [inhibitor, single point].
With `Cc1ccc(CN2CCN(/N=C\C=C\c3ccccc3)CC2)cc1` the Potency was active: 35.5 µM.
With `Cc1ccc(-c2nc3ncccn3c2Nc2ccc3c(c2)OCCO3)cc1` the Potency was active: 44.7 µM.
For `CCc1ccc(CNc2ccc3c(c2)ncn3C(C)(C)C)cc1`, the Potency was active: 8.91 µM and active: 50.1 µM.
For `O=C(CCS(=O)(=O)c1ccc(Br)cc1)Nc1ccc(F)cc1F`, the Potency was “inactive”.
For `Cc1cccc(NS(=O)(=O)c2ccc3c(c2)CC(C)N3C(=O)C2CCC2)c1C` (stereo not drawn), the Potency was “inactive”.
`CCN(CC)c1ccc(NC(=O)c2cnn(-c3ccccc3)c2-n2cccc2)c(C)c1` was tested, and the Potency was inconclusive: 2.24 µM [inhibitor, full curve, poor fit].
For `O=C(O)COc1ccccc1/C=N/Nc1ccc(S(=O)(=O)Nc2ccc(Cl)cc2)cc1[N+](=O)[O-]`, the Potency was active: 35.5 µM.
In the case of `O=C(Cc1ccc(Cl)c(Cl)c1)OCCN1CCCC1`, the Potency is reported as inconclusive: 56.2 µM [inhibitor, partial curve].
`CC(=O)N1CCc2cc(S(=O)(=O)CCC(=O)Nc3ccc(C)cc3Br)ccc21` was tested, and the Potency was inconclusive: 28.2 µM [inhibitor, partial curve, poor fit].
With `COc1ccccc1N1CCN(C(c2cccs2)C(C)NC(=O)c2ccco2)CC1` (stereo not drawn) the Potency was “inactive”.
With `O=C(CSc1nnc(-c2ccco2)n1-c1ccccc1)N1CCN(C(=O)c2ccco2)CC1` the activity, negative = inhibition was inactive: -4.54% [at 12.7 µM].
In the case of `O=[N+]([O-])c1cc(C(F)(F)F)cc([N+](=O)[O-])c1NCCNC(=S)Nc1cccc(F)c1`, the Potency is reported as inconclusive: 35.5 µM [inhibitor, full curve].
In the case of `COc1ccc(CC(=O)NCc2n[nH]c(=S)n2-c2ccccc2OC)cc1`, the Potency is reported as active: 35.5 µM.
For `Cc1cc(C(=O)OCC(=O)c2ccc(Cl)c([N+](=O)[O-])c2)c2cccc(C)c2n1`, the Potency was inconclusive: 39.8 µM [inhibitor, single point].
For `CCN(CC)CCOC(=O)C1(c2ccccc2)CCOCC1`, the Potency was “inactive”.
In the case of `Cc1cccc2sc(N(CCN(C)C)C(=O)c3ccc4c(c3)OCCO4)nc12`, the Potency is reported as inconclusive: 39.8 µM [inhibitor, single point].
With `COc1ccc(/C=N/NC(=O)c2nnn(-c3nonc3N)c2-c2cccs2)cc1OC` the activity, negative = inhibition was inactive: -2.62% [at 0.0925 µM].
`CCC(C(=O)Nc1ccc(C)c(C)c1)n1c(=O)c(C(F)(F)F)nc2ccccc21` (stereo not drawn) was tested, and the Potency was “inactive”.
`CCOc1ccc(NC(=O)CCc2c(C)nn(-c3ccc(N4CCCC4)nn3)c2C)cc1` was tested, and the Potency was “inactive”.
`COc1cc(OC)c(NC(=O)c2ccc3c(SCC(=O)O)c4c(nc3c2)CCCC4)cc1Cl` was tested, and the Potency was active: 39.8 µM.
For `COc1ccc(OC)c(C2NC(=S)NC(C)=C2C(=O)Nc2ccccn2)c1` (stereo not drawn), the Potency was inconclusive: 50.1 µM [inhibitor, partial curve].
In the case of `Cc1ccc(OCCn2cnc(Cl)c2Cl)cc1`, the Potency is reported as inconclusive: 44.7 µM [inhibitor, partial curve].
In the case of `CC(C)c1nnc(NC(=O)CCC(=O)NCc2ccco2)s1`, the Potency is reported as inconclusive: 0.1 µM [inhibitor, full curve, poor fit].
`Cc1cccc(NC(=O)[C@@H](NC(=O)[C@@H]2Cc3ccccc3CN2)C(C)C)c1` was tested, and the Potency was inconclusive: 89.1 µM [inhibitor, single point].
With `COc1ccc(N=C2C(=O)Nc3ccccc32)cc1` the Potency was inconclusive: 89.1 µM [inhibitor, single point].
% is set by controls: 0 for no effect and ±100 for the full control effect; potency is the fitted concentration of half-maximal effect; tags give direction and shape of the fitted curve.
Note: nearly all actives have a fitted effect of over 75% in size.
